B1: human INTS9 K510E/R511E (in the K510E/R511E mutant human ICM) (natural protein)
chain: not shown
notes: Integrator complex subunit 9 (INTS9), human, with K510E and R511E; also called K510E/R511E double mutation in IntS9; source: insect cells, purified as human ICM sample
B2: human INTS11, subunit of the human Integrator cleavage module (enzyme)
chain: not shown
notes: Integrator complex subunit 11 (INTS11), human; source: insect cells, purified as human ICM sample
B3: human INTS11 K462E (in the K462E mutant human ICM) (enzyme)
chain: not shown
notes: Integrator complex subunit 11 (INTS11), human, with K462E; also called K462E mutant of human ICM; source: insect cells, purified as human ICM sample

Experiments:
Test in all cases: SEC; gel filtration of wild-type, K462E and K510E/R511E mutant human ICM purified from insect cell expression; SDS gels of the mutants
Details in all cases: both partners purified
[1] = biological target: T1, human INTS4, subunit of the human Integrator cleavage module (human, UniProt Q96HW7)
T1 construct: Integrator complex subunit 4 (INTS4), human; source: insect cells, purified as human ICM sample

[2] = biological target: T2, human INTS9, subunit of the human Integrator cleavage module (human, UniProt Q9NV88)
T2 construct: Integrator complex subunit 9 (INTS9), human; source: insect cells, purified as human ICM sample

[3] = biological target: B1

T1 sequence (Q96HW7 whole entry): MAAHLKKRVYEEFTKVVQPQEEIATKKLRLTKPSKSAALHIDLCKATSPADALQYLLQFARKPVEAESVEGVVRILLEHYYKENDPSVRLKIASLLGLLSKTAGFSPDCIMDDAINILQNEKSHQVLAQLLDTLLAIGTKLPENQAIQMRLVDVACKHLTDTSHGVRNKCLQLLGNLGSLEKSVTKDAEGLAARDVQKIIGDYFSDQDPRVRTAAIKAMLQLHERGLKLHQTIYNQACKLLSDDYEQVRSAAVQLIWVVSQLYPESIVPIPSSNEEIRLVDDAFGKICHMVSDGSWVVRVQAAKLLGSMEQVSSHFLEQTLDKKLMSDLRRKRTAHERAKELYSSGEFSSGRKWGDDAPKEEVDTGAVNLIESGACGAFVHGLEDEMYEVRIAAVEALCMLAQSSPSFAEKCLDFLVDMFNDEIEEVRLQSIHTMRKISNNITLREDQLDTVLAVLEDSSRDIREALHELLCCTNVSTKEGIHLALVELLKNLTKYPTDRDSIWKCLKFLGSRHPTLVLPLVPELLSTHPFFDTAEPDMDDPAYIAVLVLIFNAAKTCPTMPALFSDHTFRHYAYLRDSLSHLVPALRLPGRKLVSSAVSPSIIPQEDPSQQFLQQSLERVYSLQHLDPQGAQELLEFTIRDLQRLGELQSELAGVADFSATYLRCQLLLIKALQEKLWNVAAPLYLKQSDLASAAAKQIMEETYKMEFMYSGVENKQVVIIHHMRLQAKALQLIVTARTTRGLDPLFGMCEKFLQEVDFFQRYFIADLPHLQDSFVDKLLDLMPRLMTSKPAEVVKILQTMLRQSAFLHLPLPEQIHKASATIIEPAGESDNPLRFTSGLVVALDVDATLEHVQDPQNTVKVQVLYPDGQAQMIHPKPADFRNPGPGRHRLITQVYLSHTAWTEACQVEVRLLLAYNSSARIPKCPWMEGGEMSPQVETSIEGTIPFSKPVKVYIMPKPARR

binding result [1]	binding result [2]	binding result [3]	Binder
binds	–	–	B1
binds	binds	binds	B2
binds	binds	–	B3

Reference: paper PMC9525679, “Inositol hexakisphosphate is required for Integrator function” (Nature Communications, 2022)
